Z-score data for 111 compounds are collected here from PubChem BioAssay AID488969 (Vanderbilt High Throughput Screening Facility, 2010).

The full ranking holds about 110,000 compounds; the median of “z-score” is about -0.1, and the highest 2% start at about 2. The list shows a part of the results. Activity calls are given as the source filed them.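 Rule for the calls: active = z-score in the third read window above 3 or below -3; inactive = the rest.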

In this assay the target is Metabotropic glutamate receptor 8 (Rattus norvegicus) (UniProt P70579). Nature of the assay: mGluR8 Gi/Go-coupled signaling modulation – cell-based, rat, thallium flux, HTS, primary screen (AID 488969). The settings on record: HEK293 rat mGluR8, GIRK (G protein-gated inwardly rectifying potassium channel) thallium flux, FluoZin2; at 10 µM; stronger effect = higher value; submaximal glutamate (EC20) added with thallium.
Chain of UniProt P70579 (P70579 whole entry, looked up): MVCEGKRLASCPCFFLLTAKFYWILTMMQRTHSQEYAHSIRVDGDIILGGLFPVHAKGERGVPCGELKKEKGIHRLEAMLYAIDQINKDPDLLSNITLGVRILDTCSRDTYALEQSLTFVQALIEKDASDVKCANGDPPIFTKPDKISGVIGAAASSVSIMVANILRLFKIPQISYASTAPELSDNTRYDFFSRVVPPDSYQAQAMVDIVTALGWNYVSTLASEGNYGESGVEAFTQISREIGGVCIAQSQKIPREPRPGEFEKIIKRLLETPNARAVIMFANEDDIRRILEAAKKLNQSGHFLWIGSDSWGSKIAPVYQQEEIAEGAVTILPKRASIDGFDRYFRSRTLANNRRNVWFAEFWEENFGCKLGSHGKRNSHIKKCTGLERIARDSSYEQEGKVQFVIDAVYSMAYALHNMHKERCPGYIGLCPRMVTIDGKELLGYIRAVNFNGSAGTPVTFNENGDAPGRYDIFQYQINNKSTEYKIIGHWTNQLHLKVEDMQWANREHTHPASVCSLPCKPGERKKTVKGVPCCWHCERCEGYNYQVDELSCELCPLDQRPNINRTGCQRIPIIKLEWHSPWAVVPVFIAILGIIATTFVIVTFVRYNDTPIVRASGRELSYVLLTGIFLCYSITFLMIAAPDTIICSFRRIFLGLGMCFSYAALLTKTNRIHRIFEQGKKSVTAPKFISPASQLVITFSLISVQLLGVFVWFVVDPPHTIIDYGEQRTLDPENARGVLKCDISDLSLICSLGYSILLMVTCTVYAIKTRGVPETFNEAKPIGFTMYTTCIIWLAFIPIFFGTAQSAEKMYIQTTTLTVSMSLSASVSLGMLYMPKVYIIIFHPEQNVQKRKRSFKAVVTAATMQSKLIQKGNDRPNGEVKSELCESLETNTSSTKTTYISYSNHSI
Regarding `CCc1nnc(NC(=O)CSc2nnc(Cc3ccccc3)n2-c2ccc(OC)cc2)s1`, the z-score is -0.238.

With `N#CCCCSc1nnc(CSc2nc3ccccc3s2)n1-c1ccccc1`, the z-score was -0.337.

For the compound `COc1ccc2[nH]c(=O)c(CN(Cc3ccc(C)cc3)Cc3nnnn3CC3CCCO3)cc2c1` (stereo unspecified), the z-score was -0.39.

In the case of `CC1=C(C#N)C(c2cccnc2)C2=C(CCCC2=O)N1` (stereo unspecified), the z-score turned out to be 0.29.

For the compound `O=C(Cn1c(CN2CCCCC2)nc2ccccc2c1=O)NC1CCCCC1`, the z-score is -0.467.

`COc1cc(SC#N)ccc1N=Cc1c(C)[nH]n(-c2ccc(C)cc2C)c1=O` had a z-score of -0.204.

In turn, `COc1ccc(NC(=O)CSc2ccc(-c3ccccn3)nn2)cc1OC` yielded a z-score of -0.397.

Compound `COC(=O)c1c(NC(=O)c2cccs2)sc2c1CCC(C)C2` (stereo unspecified) gave a z-score of -0.363.

Turning to `COc1ccc(/C(C)=C2\SC(=S)N(CCC(=O)O)C2=O)cc1`, the z-score is -0.117.

Turning to `Cc1cc(C)n(-c2ccc(C(=O)OCC(=O)NCc3ccc(Cl)cc3)cc2)n1`, the z-score is -0.0509.

Regarding `CCSc1nnc(NC(=O)COc2ccc3ccccc3c2)s1`, the z-score worked out at 0.705.

As for `O=C(NCc1ccncc1)c1cnccn1`, the z-score was 1.06.

Compound `Cc1nc2ccccn2c1C(=O)NN=C1C2CC3CC(C2)CC1C3` returned a z-score of -0.259.

As for `C=CCNC(=O)c1ccccc1S(=O)c1ccccc1C#N` (stereo unspecified), the z-score was -0.0548.

`O=C(NNC(=O)[C@@H]1CCCC[C@@H]1C(=O)O)Nc1ccccc1` registered a z-score of -0.216.

As for `CC(Sc1ccccc1)C(=O)Nc1ccccc1C(=O)N1CCOCC1` (stereo unspecified), the z-score is -1.59.

Regarding `COC(=O)C(CC(C)C)NC(=O)CNC(=O)c1ccccc1C` (stereo unspecified), the z-score is -0.309.

`COc1ccc(C2N(S(=O)(=O)c3ccccc3)CCN2S(=O)(=O)c2ccc(C)cc2)cc1` (stereo unspecified) returned a z-score of -0.159.

For the compound `O=C(Nc1nccs1)c1ccccc1[N+](=O)[O-]`, the z-score is 0.0807.

Turning to `CC(=O)c1ccc(OCCCN2CCCCC2)cc1`, the z-score was determined as 0.547.

On to `Cc1cccc(N(CC(=O)NCc2ccc3c(c2)OCO3)C(=O)CCC(=O)Nc2ccccn2)c1`, for which the z-score was -0.254.

In the case of `COc1ccc(NC(=O)N2CCCC2C(=O)NCc2ccc(F)cc2)cc1` (stereo unspecified), the z-score was determined as 0.0229.

Compound `CCC(C)(C(=O)NC1CCCC1)N(Cc1cccs1)C(=O)Cc1cccs1` (stereo unspecified) showed a z-score of -1.17.

For the compound `CCCCCCCCc1nnc(NC(=O)c2ccco2)s1`, the z-score came out at 0.0845.

`O=C(NC(=S)NCc1ccccc1)C1CCCCC1` returned a z-score of -0.483.

In turn, `Cc1ccnc(NC(=O)c2sc3ccccc3c2Cl)c1` gave a z-score of -0.115.

Compound `COCCSc1ccccc1C(=O)Nc1cccnc1` yielded a z-score of -0.219.

The compound `Cn1c(=O)c2c(ncn2CC(=O)Nc2ccc(Cl)cc2Cl)n(C)c1=O` displayed a z-score of -0.103.

Take `CC(C)(C)C(=O)Nc1ncc(C(F)(F)F)cc1Cl`: the z-score is -0.133.

With `CC(=O)Nc1ccc([N+](=O)[O-])cn1`, the z-score is -0.229.

In the case of `CCOC(=O)CSc1nnc(-c2ccco2)n1-c1ccccc1`, the z-score is -1.24.

`COc1ccc(-c2noc(-c3ccccc3-c3ccccc3)n2)cc1` came in with a z-score of -0.457.

Regarding `CSc1nccc(Oc2ccc(C#N)cc2)n1`, the z-score is -0.172.

Regarding `COc1ccccc1NC(=O)CSc1nnc(C)o1`, the z-score was 0.274.

As for `CC(=O)N1CCc2cc(S(=O)(=O)NCCCOC(C)C)ccc21`, the z-score is -0.446.

Consider `O=C(Nc1ncn[nH]1)C(F)(F)C(F)F`, for which the z-score stood at 0.119.

In turn, `COC(=O)c1c(CCl)noc1C(=O)NCC1CCCO1` (stereo unspecified) came in with a z-score of 0.0146.

With `O=C(Nc1nccs1)c1ccc(Cl)c(S(=O)(=O)N2CCCCC2)c1`, the z-score worked out at 0.824.

The compound `COc1ccc(CC(=O)NNC(=O)c2ccc(SCc3cc(F)ccc3F)c([N+](=O)[O-])c2)cc1` showed a z-score of -0.293.

`COc1cccc(N2CCN(CC(=O)c3c[nH]c4ccc(OC)cc34)CC2C)c1` (stereo unspecified) registered a z-score of 0.109.

Compound `Cc1ccc2[nH]cc(C(=O)CN3CCN(c4ccccc4F)CC3)c2c1` gave a z-score of -0.0337.

Take `CC1(C)CC(=O)C(C=NCCCO)=C(O)C1`: the z-score amounted to 0.107.

Regarding `CCCn1c(=S)[nH]c2cc(C(=O)N3CCc4ccccc43)ccc2c1=O`, the z-score was determined as 1.07.

Compound `CC1CCN(c2nc3ccc(C(=O)N4CCN(Cc5ccc6c(c5)OCO6)CC4)cc3s2)CC1` had a z-score of 0.103.

In turn, `COc1ccc2nc(SCC(=O)Nc3cc(C)on3)[nH]c2c1` yielded a z-score of -0.465.

The compound `NS(=O)(=O)c1ccc(N/N=C/c2cn(-c3ccccc3)nc2-c2cccs2)cc1` came in with a z-score of 0.229.

On to `Cc1cc2c(c(=O)n1C1CC1)C(c1cccc(Cl)c1)C(C#N)=C(N)O2` (stereo unspecified), for which the z-score is -0.179.

Compound `CCn1c(=O)c2cc(C(=O)N3CCN(C)CC3)sc2c2ccccc21` yielded a z-score of -1.56.

Compound `Cc1ccc(NC(=O)c2ccc(NCCc3ccccc3)c([N+](=O)[O-])c2)cc1F` had a z-score of 0.227.

`COc1ccccc1NS(=O)(=O)c1ccc2oc(SC3CCOC3=O)nc2c1` (stereo unspecified) returned a z-score of -1.2.

On to `N#Cc1ccc(OCC(=O)Nc2ccccc2NS(=O)(=O)c2cccs2)cc1`, for which the z-score is -0.0156.

`CCOC(=O)C1CCN(Cc2ccc(F)c(F)c2)CC1` registered a z-score of -0.221.

For the compound `Cc1cc(NC(=O)C(C)C)ncc1NC(=O)c1cccc(F)c1`, the z-score is 0.905.

On to `O=C(c1cccnc1)N1CCN(S(=O)(=O)c2ccc3ccccc3c2)CC1`, for which the z-score is -0.122.

`COc1nc(-c2ccc(C)cc2)ccc1-c1noc(-c2ccco2)n1` registered a z-score of -0.536.

The compound `Cc1cccc(NS(=O)(=O)c2ccc(Oc3ccccc3)cc2)n1` registered a z-score of -0.567.

`COc1cc(C)c(Cl)cc1S(=O)(=O)n1ccnc1C` displayed a z-score of 1.18.

`C=CCn1c(Oc2ccc(C(=O)OC)cc2)nc2c1c(=O)n(C)c(=O)n2C` came in with a z-score of 0.0145.

`O=C(Cc1c(F)cccc1Cl)NCCCn1ccnc1`: the z-score was 0.869.

Regarding `CCCC(=O)Nc1ccc(-c2nc3cc(C)c(C)cc3o2)cc1`, the z-score stood at 0.343.

Take `Cn1c(CSCc2ccccc2Cl)nnc1SCC(=O)Nc1nccs1`: the z-score was -1.21.

With `CCOC(=O)c1ccccc1NC(=O)c1ccc(Cl)c(S(=O)(=O)N2CCOCC2)c1`, the z-score worked out at 0.0847.

With `CCn1cc(C(=O)NCC2CCCO2)c(=O)c2cc(S(=O)(=O)N3CCC(C)CC3)ccc21` (stereo unspecified), the z-score was -0.915.

The compound `Nc1nonc1C(=O)N/N=C/c1ccc(-c2cccc([N+](=O)[O-])c2)o1` returned a z-score of -0.301.

`Cc1cc(C(=O)N/N=C/c2cccn2C)no1` returned a z-score of 0.00854.

For the compound `O=C(COC(=O)CCC(=O)c1cccs1)Nc1cccc(S(=O)(=O)N2CCOCC2)c1`, the z-score was -0.252.

Compound `CCOC(=O)C1=C(CSCc2ccccc2)NC(=O)NC1c1cc(C)ccc1C` (stereo unspecified) had a z-score of 0.201.

For `COc1cc(/C=N/NC(=O)c2nc(-c3ccccc3)n(-c3ccccc3)n2)ccc1O`, the z-score was -0.407.

`CCN(CC)C(=O)CN(c1cccc(C(F)(F)F)c1)S(C)(=O)=O`: the z-score is -0.133.

`Cc1ccc(C(=O)CCC2CCCCC2=O)cc1` (stereo unspecified) gave a z-score of 0.502.

As for `O=C(NCCN1CCOCC1)c1cc2ccccc2o1`, the z-score turned out to be 0.127.

In the case of `CC1Cc2nc(SCC(=O)Nc3ccc4c(c3)OCO4)n(Cc3ccccc3)c(=O)c2S1` (stereo unspecified), the z-score is -0.563.

Turning to `Cc1cccc(-n2c(C)cc(C=C(C#N)C#N)c2C)c1`, the z-score was -0.509.

On to `CCN(CC)C(C)C(=O)NCC1(c2ccccc2)CCOCC1` (stereo unspecified), for which the z-score is -0.0652.

In turn, `O=C(Cn1cnc2c(cnn2-c2ccccc2)c1=O)c1ccc(Cl)cc1` returned a z-score of 0.339.

`CCCn1nnc(NC(=O)COc2ccc(CC)cc2)n1` gave a z-score of -0.0151.

For `CN1C(=O)NC(NC(=O)C2CCCCC2)(C(F)(F)F)C1=O` (stereo unspecified), the z-score is -0.749.

`CCN(CC)c1ccc(/C=N/N2CCOCC2)c(O)c1` registered a z-score of -0.0856.

Take `COc1ccc(COCC(O)CN(Cc2ccco2)Cc2ccccc2O)cc1` (stereo unspecified): the z-score is -0.409.

For the compound `COc1ccc(C2C(C(=O)Nc3cc(C)on3)c3ccccc3C(=O)N2C)cc1OC` (stereo unspecified), the z-score is -0.408.

For the compound `O=C1C2C(c3ccccc3)C=CC(c3ccccc3)C2C(=O)N1CCCO` (stereo unspecified), the z-score was -0.894.

The compound `Cc1ccc2c(c1)N(CC(=O)N1CCCCC1c1cccnc1)C(=O)CO2` (stereo unspecified) gave a z-score of -0.309.

For `COCCn1c(SCC(=O)Nc2ccc(N3CCOCC3)cc2)nc2ccccc21`, the z-score is -0.228.

Consider `O=C(CN1CCN(Cc2ccccc2Cl)C1=O)NCC1CCCO1` (stereo unspecified), for which the z-score is -0.183.

For `COc1ccc(CNc2ccc(S(N)(=O)=O)cc2)cc1`, the z-score is -0.186.

In the case of `COc1ccc(N2C(=O)CCC2(C#N)c2ccc(Br)cc2)cc1` (stereo unspecified), the z-score is -0.0943.

`CC(C)(C)C1CCc2c(sc(NC(=O)c3cc(C4CC4)on3)c2C#N)C1` (stereo unspecified): the z-score was determined as 0.662.

`COc1cc(/C=N/N=C2\CC3CCC2(C)C3(C)C)ccc1O` (stereo unspecified) came in with a z-score of 0.00478.

`CCOc1cc2nc(-c3ccc(OC)c(OC)c3)nc(N3CC(C)OC(C)C3)c2cc1OC` (stereo unspecified) returned a z-score of -0.68.

For `Cc1ccc(NC(=O)c2cc(NC(=O)CCC(=O)O)ccc2N2CCCCC2)cc1`, the z-score is active: 4.06.

In turn, `Cc1ccc(CNC(=O)CSc2nc(N3CCCCC3)nc(N3CCCCC3)n2)cc1` yielded a z-score of -0.805.

Compound `CN(C)Cc1c(O)ccc2occ(C(=O)c3ccccc3)c12` gave a z-score of 0.136.

In turn, `CCc1ccc(NC(=O)C2CCN(S(=O)(=O)c3c(C)[nH]c(=O)[nH]c3=O)CC2)cc1` yielded a z-score of -0.42.

Take `Cc1ccc(C2=NN(CCC(=O)NCc3ccc4c(c3)OCO4)C(=O)CC2)cc1`: the z-score was -0.148.

Compound `O=C1CCC(=O)N1CNc1ccc(Oc2ccccc2)cc1` registered a z-score of -0.173.

`COc1ccccc1/C=N\Nc1cc(C)nc(-n2nc(C)cc2C)n1`: the z-score was -0.0701.

Compound `C=CC(=C)CC(NC)c1ccccc1` (stereo unspecified) gave a z-score of 0.239.

As to `Cc1nnc(SCC(=O)Nc2nsc(-c3ccc(C(C)(C)C)cc3)n2)s1`, the z-score was -0.00925.

For `Cc1ccc2nc(SCC(=O)Nc3cc([N+](=O)[O-])ccc3F)[nH]c2c1`, the z-score was -0.422.

Regarding `O=c1c2ccccc2oc2nc(-c3ccco3)n(-c3ccccc3)c(=O)c12`, the z-score is -0.104.

As to `CC(Sc1nncn1-c1ccccc1)C(=O)Nc1cccc([N+](=O)[O-])c1` (stereo unspecified), the z-score was -0.46.

As to `Cc1ccc(C)c(Cc2c(C)nc3c(C(=O)NCc4ccc5c(c4)OCO5)cnn3c2C)c1`, the z-score is -0.983.

`COc1ccc2c(c1)c1ncnc(N3CCN(Cc4ccc5c(c4)OCO5)CC3)c1n2C` returned a z-score of 0.202.

Take `CCCCCCCOc1ccc(OC(=O)c2ccncc2)cc1`: the z-score is -0.427.

`COc1ccc(OC)c(-n2nnnc2SCC(=O)Nc2cc(C)ccc2OC)c1` came in with a z-score of -0.462.

Turning to `Cc1nn2c3c(cnc2c1-c1ccccc1)C(=O)CC(C)C3` (stereo unspecified), the z-score was -0.361.

On to `O=C(CCCn1c(SCC(=O)c2ccc(F)cc2)nc2ccccc2c1=O)NCc1ccco1`, for which the z-score came to 0.194.

For the compound `CC(=O)OC(Cn1ccnc1)c1ccccc1` (stereo unspecified), the z-score is 0.415.

On to `CCOc1cc(S(=O)(=O)N(CC)CC)c(OCC)cc1-n1cnnn1`, for which the z-score is -0.332.

Compound `CC(C)C(c1nnnn1C(C)(C)C)N1CCOCC1` (stereo unspecified) yielded a z-score of 0.0185.

The compound `CC(=O)NCCn1c(SCc2ccc(C)cc2)nc2ccccc2c1=O` came in with a z-score of -0.294.
